Laboratory results: paper PMC10726135
Some of the results follow. At the low end of the ranking the order means little. The protein was read in a cell extract, so binding may be indirect.

The sequences below were run against T1, HNF4alpha2 (COS-7 nuclear extract) (UniProt P41235) (assay: protein-binding microarray). Settings: COS-7 nuclear extract on double-stranded Agilent 4x180k PBM; binding buffer, salt, pH and temperature not given; high values mean tight binding; double strand, one strand shown; sequences stand for … in …GCCTAGGGAGATTAGAGTATCGGTCGA.
T1 sequence: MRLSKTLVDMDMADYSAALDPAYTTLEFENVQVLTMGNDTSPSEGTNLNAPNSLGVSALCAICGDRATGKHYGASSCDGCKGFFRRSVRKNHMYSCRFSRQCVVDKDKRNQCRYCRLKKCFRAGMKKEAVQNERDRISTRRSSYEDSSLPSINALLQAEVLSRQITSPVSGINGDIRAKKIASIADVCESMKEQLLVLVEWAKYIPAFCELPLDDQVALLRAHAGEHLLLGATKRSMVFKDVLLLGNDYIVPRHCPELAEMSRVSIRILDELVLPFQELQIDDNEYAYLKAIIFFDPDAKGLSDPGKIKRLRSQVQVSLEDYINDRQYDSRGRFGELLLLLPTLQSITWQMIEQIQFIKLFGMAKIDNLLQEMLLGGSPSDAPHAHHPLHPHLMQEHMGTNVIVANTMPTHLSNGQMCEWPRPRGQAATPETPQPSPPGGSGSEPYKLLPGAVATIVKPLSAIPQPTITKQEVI

Sequence | binding signal (log2 normalized intensity)
GGTATGGATTCTGGGACCCACCCACCTATG | 0.346
CCAGACAGGAGGATTCCTGATGCGTTCAAG | -1.05
AGCCTGTGGCCAGGCTGCGTTTCAAAGCCA | -1.22
CAACATTGTCCAGCAGACACGGGCAGGTGA | -1.04
ACAGCAACTCAGGCAACAATGCCTTGTGTA | -1.07
GATTCTTACAGGCAATTGATAATGATGTTT | 1.53
CCCTTCGCTCCCCGACCTCCTGCTGCAGCT | 1.88
AGAAGAAAGCCCTTTTTGGAATGTGTTTGC | 1.2
AAGGTTGCAGAGTGTCCCACTTCAGGCAGG | -1.13
GCTGATCCTATTTACCTGCCTGTGCTGTGG | 0.717
AAAACAGCATGCGGTAAAGAAGCCAGCCAA | -0.869
CAGTATACTGACTTATCAGGGTTATTTGCT | -0.769
TTCTTCTGCTTCCCTAGGGAGGTGATTGGT | 1.52
CCTTATCAGCGGCCCTGTGCTGCCCCCGAT | 4.71
AAGAGTGAATTCTGCAGCAGATGGCCAGCC | -1.19
CAACATAGTGATTTAGGCTTTTGGGCCCTG | 0.609
AGACACACTCAGGCACTGGGATCCAAAGTT | -1.08
TCAGTATGAATGCCTTGGCCTCTGCAGACA | -0.694
GTTGTCTGATGGCTGCTTCACACAAACATC | -1.12
ATAAAGTGATTAGTGCAAGAATCCAAGAAT | -0.966
CTCCCTGAAGAAACAGTCTTTGCTTTTTGA | 0.962
TAAAGTCCAAATTCCTTGGAATACATGGAA | 1.78
CTGTCTAGGCCAGAGTTCACTTTCCTCTCA | 0.906
AGATAGGACAGTGGTCTTTATGACTTGGGT | 1.68
GTCTTACTAAATGCAGCCTTGGGCAAGTTA | -0.483

Sequence | binding signal (log2 normalized intensity)
TTGGGCCCTGTCTGATAAGGGTGTTTGTCC | 1.25
CTTCATATCAGTAAACCCCAATCAGGTTTC | 1.49
AAAACTGGTCAATATCCACACAAACCCAGT | -1.01
GCAGGAGCTGGCCTGGTAGGACAGGGATCC | -1.11
GACTTTAACCCCCTTGTCTTCCTCAAATTA | 2.39
CATTCAGCACCAGGGATAGCGCCCACACTG | -1.07
GCTTATGTTTGCAAGTCGAGCAAGGTTCAG | 2.32
AATTCCTTTCAAACTGTATTGCTCAATGTC | 0.914
TGATATTGTGAAATATATATTTGCTCTTCA | 0.828
GGTTAATTCACATCTCCAGTTCCAAAGTCC | 5.54
GACCTTTGGACAGGGTGACGTCATTGGAAA | 6.01
GCAGAGGGAGGACAAAGTTCTGTCCTTTGT | 2.45
CGGTGTGAGTGGTCCTTATCAGCATGGGTC | 1.84
ACAGAAGCCAGAGGCAGCAAGGTCAAAGTG | 1.43
TCCACTGGACAGCAGCTACATAAGGGTAGA | -1.07
AGCCGGCCTCTTAACAGATGAGGACATTTC | -0.852
TCTGGACTTGGATCAGCCTGATTGAGTTCA | 0.327
TTCACTAGACCTAGATAAGGGAGATGAAAG | -1.11
TGCTCTCTCATGCCCTTTGCCTCCCTGCAT | 3.45
GGGGAAAGTCCACGTGAGAGGGTCGTGATC | 1.69
TTCAGATGCAACACAGGGGGAGGAATGCTG | -1.16
GGAAATCATCAGCACATTGGTGAGAATGGA | 0.774
TAGGGGGATTCTGGCTAAACCAGCCTAACA | -0.974
CTAGGGGAAACTGCTTTGGTTAATCATTAG | 0.451
AACACAGAACTAGCCAGACCTGTTCCTCTG | -1.14

Sequence | binding signal (log2 normalized intensity)
GGCTGGAGAGGAGGTTATCTCGGGGCTGGC | -1.17
TCCGCATCCTCAAGAAACACAGAACTATCA | -1.06
GAAGTTCTAGGAGCCTGGACATTTGCCACC | -0.732
CCACTCAGTCTCTTGAAATCCCAAGCAGTG | -1.09
CTGAATCCAAAGGTCAATGCCAGGACCCTG | 4.42
TGGGAGAGCACTTGGTGCCTCTGAGCTAAG | -1.18
GGAGTTTCCTGCCTGGTCCGCCCTTCCCCG | 1.84
GAACTGACAAGCAGTGACCAAGGGTCAGTT | 3.77
ATCCCCAGCCACGCTCCTCTTATCATTAGA | 1.22
GGGGCGGGGGTTGCAAGTCTGAGGCTGCTC | -1.18
TTGGTGTAACTCTGGGTCTGAGACCAAAGT | 1.59
GAAAAAAGCCAATCTCTCAAATCTAGCCAA | -1.17
GGTCTGTAGAAGGCGCTGTGAAGCACATCC | -1.07
AGGGAAAAAATAATCAGCTTAAGCATACAG | -0.995
ACAACATTGAAAGCGATCTTTGCATTCCCA | -0.794
ATTCTTAGACACAGTCTGAGATAGAAGGTC | 0.907
AGGAGAAAGACCCTAAACCTGTTGGGTCAG | -1.13
TTTGATCAAAGGTCAGCTCTCCTTTGTCTT | 4.1
TATTCAGAGTTAGCTAAGCTTCACTGACAT | -1.09
GTTCAAATTCCAGCTTCCCCACTTATTACC | 2.08
GGTGTTCCTCAGCCTTGAATTGGCATGAGA | 0.5
GAGGGGCAGGCTTAGCTGGGCTAGCACCTG | -1.03
GAGAAGTGATAAATTGGCCAAAGGTGAAGG | 1.78
ATAAGCCTGAATTCTGGAAGGACTGTCTTT | 0.351
AACTGCTATTGGTTGTCAGACTGGTGTAGT | 1.95

Sequence | binding signal (log2 normalized intensity)
TCAGCTGCCTAGAGGCCTGGGAATGCCTAG | -0.931
TATCAGGCAGGATATTCCAAAAGGGCAGCA | 0.153
CTAGTACTCCTGCCCCTGTGCAATACTTTC | 2.48
TTGCACTGCTGGTTTTTGTCAAAGATAGTT | 1.49
GGTGGATACTTTGACTGAGACTGCCTCAAA | -1.09
CAGCTTCCCCACTTATTACCGGTGTGACTT | 2.01
TCAGGCCGTGGTGTATGATGACGCCACGCC | -1.15
ACGCTGCTAATCCTACTTTATCTAAGTAAA | -0.953
TTTCCATCGCCCTTATCAGAAGGAAAGTCT | 1.02
CGAAGATAACCTACTTAAAAAGAAATAGCC | -1.06
TGTATGTGGCAGGCACTTAGCAAATATTTA | -0.293
AAAAGAGAGAGAATGTCCTCCCTGAGTCAG | -1.15
ACTATTTACTTAATCCCTTGGAATGTCCTT | 1.41
CCCCTCTCTACTGGTAAGCAAATATTTGAA | 2.43
TGCTCTGGACATACCTCTAATCATAAAGCT | -1.11
TGGTAGGATTGTTTGGGGATTACACTAGAT | -1.01
TCCACAGTGCACATTCCAGAGAAATAGTGA | -0.955
TGGACCTCATTAATAGGGCAAGAGCTCAGA | -1.13
CCTTCCCTCTGTCTTCAAAACCACACCCCT | 4.32
CTGGAGCAAAGGTCACTCTTGCTATGCCTT | 4.82
AAGGTGTCAGGACCTTTCTTTATGGACCTT | 3.94
AAGACATGAAAAGTGGAATGCGCTTTCATG | -1.09
ATTGGAATGAGCCTCCTGAAGATCCCCTGT | 2.41
CCCATCACTACTCCAGGGAGAAACCTGCCA | -1.08
GGAAGCTGGGCAGGCGCCGACTGCCAGGAG | -1.18

Sequence | binding signal (log2 normalized intensity)
GGCATTCTGACCTTTGTCTCCAGGCAAACT | 4.88
GGCTTGAGCAGCTGGTGGAGGCGGTGCCAT | -0.801
GTCTGAGATATCTTTCTCTATAGTAATCTT | 0.563
CTCAGCACATGGCAGTGTACACTAGCCAAA | -1.27
ATGTTGGGCAACTACCTCAAAGTTTTGTTA | 0.0615
GGGTCTAGGTTGGAGGAGCTGAACTGTAAC | 1.12
CTAATAAATGATTCATTCAGCAAATATTGA | -1.07
GCTGTGCCGAGCCTGCAGGTGAATGGAAAC | -0.549
CTTAAGAACGCTTGTGATTACACTGGGCTC | -1.17
TGTGTTCTTGTTTGCTAAGTGAGAACACCG | -1.12
GCTGTTAAATGGAGTGGAATTTGGAGAGAA | 0.581
GGTTCTCAGCTGACATTGGTGGAATCTGAA | 1.13
AAGAGATTTCCTGCAGGTGGTGACCCCAGA | 4.42
GTGTAATGGTTAGCACTCTGGACTCTGAAT | 3.08
CTGGGACTTGCCTTTGTCCATTCACTTCCC | -0.128
GCTGCAGCTGGGCTATACAATTCCAGCAAG | -1.27
ATACGTTTAACAGTTCCTCCTGGAATCTGG | 1.46
TCCGTTAACAGCGGCATTCCTGTCAAAATC | -1.11
CAGCCTAACAGGATTTTTGCTGAAGACAGG | -0.615
TGGGGCCAAAAAATTCCAGGCACAGTTACT | -1.16
CCATCGAATTCTTGTCCAACTCCCCTCCCA | 4.05
AACAAATTGAGAAAGATTAAGAGGCTACAA | -1.1
TGGTACTATGACCTTTCACCTTTTAGCTTG | 5.81
CCTGCCTCTCCTCTGAGCTTCATCCTGACC | 1.62
TGAATTTTATCACTCCATCAAGGGGATTAG | -1.05

Sequence | binding signal (log2 normalized intensity)
TGTTTTCAATGACTACCTGTTACCCACCTG | 0.766
GGGAGAGTGAGTGAGTGTGTGTGTGTAAAA | 2.5
TGTGCTGCCCCCGATAGCACTATTAGTCTT | 2.74
ACTGCGTCCAGCCACAATTAATGTACCCCC | 4.12
TAACCAGGGGTGGGGACCTTTGGGCTCTGA | 2.24
GTGGTATTTGCTCTGTCATCAACGTATCTG | 0.863
CTTTGATCTTCTTACCCCTTTGCTGATTAC | 2.7
AACAATGTTATCTTTTCAAGGATGTTTATA | 1.07
CGATAACCCTCTGGGGCCGGGAGCAGGGAG | -1.11
AAGCCACGGGCTATTTGGACTAGGCAAAAG | -0.0946
TCACCCAGAAAAGGCTGTAAACTCACTCTG | -1.17
GCACAAGAGGGCAGTATTTGCTTACAGTCT | -1.09
TTATTTAAATTTCTTGAGGCATTTATTACA | 0.233
ATACTCAGAGCCGCACCCAGCTTTCATCTC | -1.19
GGCAGTCGTGATAGTGACCACCTGGTGGAC | 1.02
AGTCAAAAACCAGTTATTTCAGTTATTTAC | 0.0871
ATGACTCATAAAGAACAGTTATTCTTAGCT | -1.17
AATTACCTGGACTCTAGAGCCAGACTAGTA | 1.26
GTTCTATCGGAGAACGTTCCAAACCTACAC | -1.1
TTTGGCCCCCAGAGCCCCGTGTCTCCCTAC | 4.6
